Test results as given in PubChem BioAssay AID1460 (National Center for Advancing Translational Sciences (NCATS), 2008).
Among all 270,000 compounds or so, about 5,800 (2.1%) were called active. Inconclusive results, whose numbers are uncertain, are shown with a selection of clear calls. The call rests on the fitted dose curve; in most records, active means well fitted inhibition curve with a large enough effect; inconclusive means small, poorly fitted or top-dose-only effect; inactive means flat fitted curve, though single readings scatter. Potencies of inconclusive entries are doubtful fits and often do not repeat.
Further: nearly all actives have a fitted effect of over 55% in size.
Potency means the concentration at half of the fitted maximal effect; tags describe the fitted curve by direction and shape.

These compounds were tested against Microtubule-associated protein tau (Homo sapiens) (UniProt P10636) (assay: qHTS for Inhibitors of Tau Fibril Formation, Thioflavin T Binding). Details: recombinant tau K18 P301L (four-repeat tau fragment), heparin-induced fibrillization, ThT fluorescence; series mostly up to 57.4 µM.
Sequence of UniProt P10636 (P10636 whole entry, looked up, the tested form may be a part): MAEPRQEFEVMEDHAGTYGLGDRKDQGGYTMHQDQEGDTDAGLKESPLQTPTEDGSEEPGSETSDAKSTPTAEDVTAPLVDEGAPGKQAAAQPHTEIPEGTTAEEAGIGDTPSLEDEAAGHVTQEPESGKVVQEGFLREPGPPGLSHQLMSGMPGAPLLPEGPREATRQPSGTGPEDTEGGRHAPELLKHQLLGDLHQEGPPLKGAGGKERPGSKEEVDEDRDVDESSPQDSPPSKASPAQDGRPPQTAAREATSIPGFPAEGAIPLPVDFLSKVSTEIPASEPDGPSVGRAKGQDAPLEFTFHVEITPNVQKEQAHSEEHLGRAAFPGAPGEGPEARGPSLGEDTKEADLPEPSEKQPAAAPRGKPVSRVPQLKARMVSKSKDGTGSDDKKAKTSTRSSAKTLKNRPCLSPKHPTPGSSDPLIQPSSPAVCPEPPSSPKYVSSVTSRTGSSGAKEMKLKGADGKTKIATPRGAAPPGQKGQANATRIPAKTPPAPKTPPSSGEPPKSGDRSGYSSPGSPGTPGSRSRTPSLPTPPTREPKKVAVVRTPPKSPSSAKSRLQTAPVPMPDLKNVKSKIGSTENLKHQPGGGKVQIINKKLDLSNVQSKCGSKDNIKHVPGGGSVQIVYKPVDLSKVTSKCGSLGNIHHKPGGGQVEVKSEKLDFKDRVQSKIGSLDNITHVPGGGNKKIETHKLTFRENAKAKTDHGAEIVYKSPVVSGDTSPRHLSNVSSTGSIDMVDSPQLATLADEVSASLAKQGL
Description: NIH Molecular Libraries Probe Production Network [MLPCN]
NIH Chemical Genomics Center [NCGC]
Assay Provider: Carlo Ballatore, University of Pennsylvania
The microtubule-associated protein tau is an abundant protein in the axons of neurons that stabilizes microtubules. With its ability to modulate microtubule dynamics, tau contributes directly or indirectly, to key structural and regulatory cellular functions. Particularly important is the influence tau exerts on axonal transport, which allows signaling molecules, trophic factors and other essential cellular constituents to travel along the axons. Under pathological conditions, tau becomes sequestered into insoluble aggregates called neurofibrillary tangles. This phenomenon is believed to have pathological consequences by promoting axonal transport deficits that ultimately lead to synaptic dysfunction and neuronal loss. To identify inhibitors of tau aggregation, a heparin-induced tau fibril formation assay was used that employed a recombinantly expressed fragment of tau, K18 (Q242-E372), bearing a P301L mutation (Gustke et al. 1994; Hong et al. 1998). This assay monitors tau fibrillization by Thioflavin T (ThT) fluorescence.
Gustke, N., B. Trinczek, et al. (1994). "Domains of tau protein and interactions with microtubules." Biochemistry 33(32): 9511-22.
Hong, M., V. Zhukareva, et al. (1998).
Li, W. and V. M. Lee (2006).
von Bergen, M., S. Barghorn, et al. (2001). "Mutations of tau protein in frontotemporal dementia promote aggregation of paired helical filaments by enhancing local beta-structure." J Biol Chem 276(51): 48165-74.
NCGC Assay Protocol Summary:
For screening, 2 uL/well human K18 P301L (15 uM unlabeled and 0.24 uM Alexa 594-labeled tau, final concentrations) in reagent buffer (100 mM sodium acetate pH 7) was dispensed into black solid 1536-well plates (Grenier) using a solenoid-based dispenser. Following transfer of 23 nL compound or DMSO vehicle by a pin tool, 2 uL/well heparin (20 uM final concentration) in reagent buffer was added and the plate centrifuged 15 s at 1000 RPM. Plates were incubated 6 hr at 37 C and then 1 uL/well ThT (30 uM final concentration) was added. After a 1 hr ambient incubation, the plates were read by an Envision (Perkin Elmer) to monitor ThT fluorescence (450/8 nm excitation and 510/23 nm emission).
Keywords: NIH Roadmap, MLPCN, MLI, MLSMR, NCGC, qHTS, tau, tauopathies, Alzheimer's disease, fibril, neurodegeneration, aggregation
With `Cn1c(=O)n(C)c2cc([N+](=O)[O-])c(N3CCN(C(=O)c4ccc(F)cc4)CC3)cc21` the Potency was inconclusive: 44.7 µM [inhibitor, single point].
For `CCOC(=O)c1ccc(-n2c(N)c(C(=O)NCc3ccco3)sc2=S)cc1`, the Potency was inconclusive: 39.8 µM [inhibitor, single point].
For `S=c1nc[nH]c2c1[nH]c1ccc(Cl)cc12`, the Potency was “inactive”.
In the case of `CCc1ccc(C(=O)NNC(=S)Nc2ccc(S(N)(=O)=O)cc2)s1`, the Potency is reported as inconclusive: 25.1 µM [inhibitor, partial curve, poor fit].
With `O=C(C1=C(Nc2ccccc2)c2ccccc2S(=O)(=O)N1)c1ccccc1` the Potency was inconclusive: 5.62 µM [inhibitor, partial curve].
`CN1CCN(CCCc2c3c(cc4c2CCC4)CCC3)CC1` was tested, and the Potency was inconclusive: 7.94 µM [inhibitor, single point].
For `N#Cc1ccccc1Cn1c(=O)n(-c2ccc(F)c(Cl)c2)c(=O)c2sccc21`, the Potency was “inactive”.
With `Cc1cccc(C)c1OCC(O)CNC(C)C` (stereo not given) the Potency was “inactive”.
For `COc1ccc(Nc2nc(-c3c(C)nc4ncccn34)cs2)cc1`, the Potency was active: 8.91 µM.
With `CCCCCCCCS(=O)c1sc2nc(C)cc(C)c2c1N` (stereo not given) the Potency was inconclusive: 25.1 µM [inhibitor, partial curve].
In the case of `Nc1nc(SCC(=O)Nc2cccnc2Cl)n[nH]1`, the Potency is reported as “inactive”.
With `O=C1NC(=O)c2cc(Nc3ccc(F)cc3)c(Nc3ccc(F)cc3)cc21` the Potency was active: 12.6 µM.
With `Cc1ccc(Nc2nc(-c3sc(NC(=O)c4cccc(Cl)c4)nc3C)cs2)cc1` the Potency was inconclusive: 3.98 µM [inhibitor, full curve].
For `COC(=O)[C@@H](N)CS`, the Potency was active: 14.1 µM.
`Cc1c(S(=O)(=O)c2ccccn2)c(N)n(Cc2cccc(Cl)c2)c1C` was tested, and the Potency was inconclusive: 17.8 µM [inhibitor, partial curve].
With `O=C1CCCCCCC1Sc1ccccc1[N+](=O)[O-]` (stereo not given) the Potency was active: 31.6 µM.
For `COc1ccc(C2C(C(=O)N3CCCCC3)c3ccccc3C(=O)N2C)cc1` (stereo not given), the Potency was “inactive”.
`c1cncc(-c2nnc(SCc3cccc4ccccc34)o2)c1` was tested, and the Potency was “inactive”.
For `COc1cc(/C=C(\C#N)c2nc3ccccc3[nH]2)c([N+](=O)[O-])cc1OCc1ccccc1`, the Potency was inconclusive: 3.16 µM [inhibitor, full curve].
In the case of `CCOC(=O)c1ccc2nc3c(cc2c1)CCS3`, the Potency is reported as inconclusive: 1.78 µM [inhibitor, full curve].
`COC(=O)C1OC(=O)C2O[C@@]23[C@]2(C)C(OC(C)=O)CC4C(C)(C)C(=O)CC[C@]4(C)C2CC[C@@]13C` (stereo not given in full) was tested, and the Potency was “inactive”.
With `Nc1c(Cl)cc2c(c1Oc1ccccc1)C(=O)c1ccccc1C2=O` the Potency was inconclusive: 4.47 µM [inhibitor, full curve].
With `N#CC1=C(S)N(c2ccccc2)C(c2ccc(-c3ccccc3Cl)o2)NC1=O` (stereo not given) the Potency was inconclusive: 31.6 µM [inhibitor, single point].
With `Cc1cccc2c1-c1sc(C(=O)NCCCN3CCN(c4cccc(Cl)c4)CC3)cc1CO2` the Potency was inconclusive: 10 µM [inhibitor, partial curve].
For `COc1cc2c(cc1OC)CN(Cc1nc3ccsc3c(=O)[nH]1)CC2`, the Potency was inconclusive: 22.4 µM [inhibitor, single point].
In the case of `CCN1CCN(c2oc(-c3ccc([N+](=O)[O-])cc3)nc2C#N)CC1`, the Potency is reported as inconclusive: 11.2 µM [inhibitor, partial curve].
In the case of `C=CCNC(=S)/C(=C(/[O-])c1ccc([N+](=O)[O-])cc1)[n+]1ccccc1`, the Potency is reported as inconclusive: 35.5 µM [inhibitor, partial curve].
For `COC(=O)CC1=C(C(=O)OC)C(c2ccc3c(c2Cl)OCO3)C(C#N)=C(N)O1` (stereo not given), the Potency was inconclusive: 25.1 µM [inhibitor, single point].
In the case of `NNC(=O)c1cc2ccccc2cc1O`, the Potency is reported as inconclusive: 14.1 µM [inhibitor, partial curve].
In the case of `CC1(C)CC(=O)C=C(N=CC2=C(O)CC(C)(C)CC2=O)C1`, the Potency is reported as “inactive”.
For `Cn1c(C(=O)NCc2ccc(Cl)cc2)cc2c(=O)n(C)c3ccccc3c21`, the Potency was “inactive”.
For `CC(C)c1ccc(/C=N/N2CCN(c3ccccn3)CC2)cc1`, the Potency was active: 12.6 µM.
In the case of `NS(=O)(=O)c1ccc(N2N=C(c3ccccc3)CC2c2ccc(F)cc2)cc1` (stereo not given), the Potency is reported as inconclusive: 22.4 µM [inhibitor, partial curve].
With `O=C(NC(=S)Nc1nc2ccccc2s1)c1ccco1` the Potency was inconclusive: 2.82 µM [inhibitor, single point].
`COc1ccc(Nc2ncc(C(=O)Nc3cc(C)ccc3OC)c3ccccc23)cc1` was tested, and the Potency was inconclusive: 1.78 µM [inhibitor, full curve, poor fit].
With `COc1ccc(N2CCN(c3oc(COc4ccc(Cl)cc4)nc3C#N)CC2)cc1` the Potency was inconclusive: 0.708 µM [inhibitor, full curve, poor fit].
With `CC(=O)Oc1cc(OC(C)=O)c2c(=O)cc(-c3ccc(OC(C)=O)c(OC(C)=O)c3)oc2c1` the Potency was inconclusive: 14.1 µM [inhibitor, partial curve].
In the case of `COc1ccc(N(C(=O)CNC(=O)c2ccco2)C(C(=O)NC2CCCCC2)c2ccco2)cc1` (stereo not given), the Potency is reported as “inactive”.
For `CCOc1ccc(N=C2NN=C(c3cc(C)n(CC4CCCO4)c3C)CS2)cc1` (stereo not given), the Potency was inconclusive: 10 µM [inhibitor, partial curve].
For `Cc1nnc(SCc2nc3sc4c(c3c(=O)[nH]2)CCCC4)n(N)c1=O`, the Potency was inconclusive: 0.0891 µM [inhibitor, full curve, poor fit].
In the case of `CCc1nnc(NS(=O)(=O)c2ccc(N/C=C/C(=O)c3ccc(OC)cc3)cc2)s1`, the Potency is reported as inconclusive: 20 µM [inhibitor, partial curve, poor fit].
In the case of `Cc1nc(NC(=O)CSc2nc3cccnc3n2C2CCCCC2)sc1C`, the Potency is reported as “inactive”.
`Cc1cc(C=O)c(C)n1-c1ccc(Oc2ccc([N+](=O)[O-])cn2)cc1` was tested, and the Potency was inconclusive: 31.6 µM [inhibitor, single point].
With `COc1ccc(F)cc1NC(=O)C1CCN(c2nc(-c3ccc(OC)c(OC)c3)no2)CC1` the Potency was “inactive”.
`FC(F)(F)c1ccc(C2=Nc3ccccc3NC(c3cccs3)=N2)cc1` was tested, and the Potency was “inactive”.
With `COc1ccc(NC(=S)N(CCc2nc3cc(C)c(C)cc3[nH]2)Cc2cccnc2)cc1` the Potency was inconclusive: 39.8 µM [inhibitor, single point].
`CN(C)CCN1CCc2ccccc21` was tested, and the Potency was inconclusive: 25.1 µM [inhibitor, partial curve].
`Cc1ccc(C2NNC(=O)C2NC(=O)c2ccccc2)cc1` (stereo not given) was tested, and the Potency was inconclusive: 0.708 µM [inhibitor, full curve].
For `CCCNS(=O)(=O)c1ccc(CCC(=O)N2CCN(c3ccc(OC)cc3)CC2)cc1`, the Potency was inconclusive: 39.8 µM [inhibitor, single point].
In the case of `Cc1cc(SCc2ccccc2)nc(=O)[nH]1`, the Potency is reported as inconclusive: 17.8 µM [inhibitor, partial curve].
`COc1ccc(-c2cc(-c3ccccc3)nc(SCC(=O)Nc3nccs3)c2C#N)cc1` was tested, and the Potency was “inactive”.
With `CC1(C)CC(=O)C2=C(C1)OC(N)=C(C#N)C2C1C=CCCC1` (stereo not given) the Potency was “inactive”.
`O=Cc1ccc(-c2nc3ccccc3s2)o1` was tested, and the Potency was inconclusive: 8.91 µM [inhibitor, partial curve].
`CCCC(=O)Nc1cccc(-c2nc3cc(C)c(C)cc3o2)c1C` was tested, and the Potency was inconclusive: 0.794 µM [inhibitor, partial curve].
With `CC(=O)Nc1ccc(NC(=O)CSc2nnc3c4cc(Br)ccc4n(C)c3n2)cc1` the Potency was inconclusive: 0.631 µM [inhibitor, full curve].
In the case of `CN1C(=O)/C(=C/c2cc(N=Nc3ccccc3)ccc2O)SC1=S`, the Potency is reported as active: 4.47 µM.
`COCCNC(=O)c1c(N)n(CCC2=CCCCC2)c2nc3ccccc3nc12` was tested, and the Potency was inconclusive: 35.5 µM [inhibitor, partial curve].
`Oc1ccccc1N1CCN(C(=S)NCCc2ccccc2)CC1` was tested, and the Potency was inconclusive: 17.8 µM [inhibitor, partial curve].
With `Clc1ccc(CSc2nnc(-c3ccc4c(c3)OCO4)o2)cc1` the Potency was inconclusive: 4.47 µM [inhibitor, full curve].
For `Cc1[nH]c2ccccc2c1/C=N/NC(=O)c1cccs1`, the Potency was active: 11.2 µM.
For `COc1cc(C(c2c(C)[nH][nH]c2=O)c2c(C)[nH][nH]c2=O)ccc1OC(=O)c1ccccc1F`, the Potency was inconclusive: 20 µM [inhibitor, partial curve].
For `CCCCC(=O)Nc1sc(C(=O)N(CC)CC)c(C)c1C(=O)OC`, the Potency was inconclusive: 39.8 µM [inhibitor, single point].
With `CC(=O)Nc1cccc(-c2nnc(SCC(=O)c3cc([N+](=O)[O-])ccc3Br)o2)c1` the Potency was inconclusive: 8.91 µM [inhibitor, partial curve].
For `CCOc1ccc(NC(=S)NNC(=O)c2ccc(Br)cc2)cc1`, the Potency was inconclusive: 15.8 µM [inhibitor, partial curve, poor fit].
In the case of `CC(=O)NCCC(=O)Nc1sc2c(c1-c1nc3ccccc3[nH]1)CCCC2`, the Potency is reported as inconclusive: 35.5 µM [inhibitor, single point].
In the case of `COc1cccc2sc(Nc3nnc(-c4ccccc4Cl)o3)nc12`, the Potency is reported as inconclusive: 5.62 µM [inhibitor, partial curve].
In the case of `CC(=O)N(C1=C(Cl)C(=O)c2ccccc2C1=O)C1CCCCC1`, the Potency is reported as active: 3.98 µM.
With `Cc1nn(-c2ccccc2)c(C)c1C(=O)OCC(=O)NCc1ccco1` the Potency was inconclusive: 35.5 µM [inhibitor, partial curve].
With `Fc1cccc(Cl)c1CSc1nnnn1-c1ccc2c(c1)OCO2` the Potency was “inactive”.
With `Nc1nc(C2C(=O)CCCC2=O)cs1` the Potency was “inactive”.
